Out of some 340,000 compounds screened, about 6,900 (2%) were called active. No stated cut-off is given here; in the data, active means inhibition above about 30%; inactive means below that, where a call was filed. The list shows a part of the results, in another mix than the full data. Where no call is shown, the source filed none.

For orientation: inhibition means the drop in the measured response relative to a control, in per cent.

This assay concerns the target D(2) dopamine receptor (Homo sapiens) (UniProt P14416). The assay is described as follows: HTS Assay for Allosteric Antagonists of the Human D2 Dopamine Receptor: Primary Screen for Antagonists. Further: 0% is about no effect. The note with it: HEK293 TREx D2 cells, calcium flux, dopamine EC80; at 10 µM; stronger effect = higher value. The essentials: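 Inhibition of EC80 dopamine-driven calcium flux, recorded kinetically, defines activity here; cells are a tetracycline-induced HEK293 T-REx line expressing force-coupled D2.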
Sequence of UniProt P14416 (P14416 whole entry, looked up): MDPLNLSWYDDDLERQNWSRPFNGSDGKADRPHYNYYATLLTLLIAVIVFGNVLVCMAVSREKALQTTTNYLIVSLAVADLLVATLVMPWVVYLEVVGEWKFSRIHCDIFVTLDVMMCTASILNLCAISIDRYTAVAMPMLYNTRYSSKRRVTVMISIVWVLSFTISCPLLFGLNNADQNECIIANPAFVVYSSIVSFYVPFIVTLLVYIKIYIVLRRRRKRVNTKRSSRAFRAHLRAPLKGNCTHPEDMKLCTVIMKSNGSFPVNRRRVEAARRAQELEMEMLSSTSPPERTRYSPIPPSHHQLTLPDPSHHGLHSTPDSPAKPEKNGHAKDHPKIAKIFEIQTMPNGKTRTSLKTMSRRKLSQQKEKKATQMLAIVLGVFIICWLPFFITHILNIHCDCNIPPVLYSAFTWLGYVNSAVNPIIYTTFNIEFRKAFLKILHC
In general terms: Calcium assays in cells follow changes in intracellular calcium, usually with a dye or a luminescent sensor.
With `O=C(Nc1cccc(C(F)(F)F)c1)C1CCN(S(=O)(=O)c2ccc(N3CCCC3=O)cc2)CC1`, the inhibition was active: 64.4%. For `O=C(NCc1ccccc1)c1ccc2c(c1)N(Cc1ccccc1)C(=O)c1ccccc1S2(=O)=O`, the inhibition was found to be 14.4%. As for `CC(C)c1cnc2c(c1SCC(=O)c1ccccc1)c(=O)n(C)c(=O)n2C`, the figure is -2.95%. As for `CCCCOc1cccc(C(=O)N(Cc2ccc(Br)o2)C2CCS(=O)(=O)C2)c1` (configuration not stated), the figure is 0.384%; as for `Cc1cccc(C(=O)Nc2ccc(C(=O)OCc3cc(=O)n4c(C)csc4n3)cc2)c1`, 4.12%. With `NC(=O)CSc1oc(-c2cccs2)nc1S(=O)(=O)c1ccc(Br)cc1`, the inhibition was -6.75%. For the molecule `Cc1cc(F)ccc1NC(=O)C1CCN(S(=O)(=O)c2ccc3c(c2)CCCC(=O)N3)CC1`, the inhibition was -6.78%. As for `O=C(Nc1cccc(Cl)c1)C1CCN(S(=O)(=O)Cc2ccccc2)CC1`, the figure is 25.2%; as for `CC1=C(C(=O)NCc2ccc(Cl)cc2)C2(CCC(C)CC2)OC1=O` (configuration not stated), 1.33%; as for `NC1=NC(c2cc(F)cc(F)c2)n2c(nc3ccccc32)N1` (configuration not stated), 0.815%. The same measure for `Cc1ccc(Cl)cc1NC(=O)CC1Sc2ccccc2NC1=O` (configuration not stated): -1.46%; for `Cc1ccc(CNC(=O)CCc2c(C)nc3c4c(C)cc(C)nc4nn3c2C)cc1`: -5.76%; for `COc1cccc(NC(=O)N(Cc2cn(C)c3ccccc23)C2CCCCCC2)c1`: -1.86%. As for `CCN1CCN(c2cc(C)c3cc(NC(=O)/C=C/c4ccc(C)cc4)ccc3n2)CC1`, the figure is 3.15%. For the molecule `COc1ccc(C2CC(=O)Oc3ccc(C(C)(C)C)cc32)cc1` (configuration not stated), the inhibition is active: 40.2%.

As for `Cc1cccc(C(=O)Nc2ccc(N3CCC(N4CCCCC4)CC3)c(C(=O)O)c2)c1`, the inhibition is 0.414%. As for `Cc1cccc(CN2CCN(CC(=O)Nc3c(C)cccc3C)S2(=O)=O)c1`, the figure is 3.59%; as for `COc1cc(CNc2ccc3[nH]c(=O)[nH]c3c2)cc(Br)c1OCc1ccccc1F`, -3.42%. As for `Cc1ccc(C)n1-c1nnc(N2CCCC(C(=O)NCc3cccc(Br)c3)C2)s1` (configuration not stated), the figure is -7.64%.

For `COCCNC(=O)CSc1nc(-c2ccccc2)[nH]c1-c1ccc(C)cc1`, the inhibition was found to be 12.1%. For the molecule `CCCOc1ccc(CNC(=O)C2CCN(C(=O)c3sccc3-n3cccc3)CC2)cc1`, the inhibition is -8.45%.

For the molecule `CCCNC(=O)C1CCN(c2nc3ccc(C)cc3[nH]2)CC1`, the inhibition was -5.16%. `Cc1ccc(CNC(=O)CCCN2C(=O)CCn3nc(-c4cccn4C)cc32)cc1`: the inhibition was determined as 23.8%.

On to `COc1ccc(-c2nc3ccccc3n3c(-c4ccc(OC)cc4)c4c(=O)n(C)c(=O)n(C)c4c23)cc1`, for which the inhibition worked out at 13.9%. The same measure for `CCOC(=O)c1ccc2c(c1)N(Cc1ccc(F)cc1Cl)C(=O)c1ccccc1S2`: -13.1%; for `Cc1cnc(=O)[nH]c1SCC(=O)Nc1cc(C(F)(F)F)ccc1Cl`: -22.8%. The same measure for `Cc1c(Cl)cccc1-n1nc(C)c2c(C)cc(=O)n(CC(=O)N3CCCc4ccccc43)c21`: -18.4%. As for `O=C(CN1CCOCC1)Nc1scc2c1c(=O)oc1ccccc12`, the figure is active: 35.7%; as for `CCN(CC)CCOC(=O)c1ccc(NC(=O)c2cc3cc(OC)ccc3oc2=O)cc1`, 5.42%. Consider `COCCNC(=O)CN1C(=O)COc2ccc(S(=O)(=O)N3CCCC3)cc21`, for which the inhibition is 26.4%.

Consider `CCc1ccc(NC(=O)Cn2c(=O)n(CCCC(=O)NCCc3ccc(OC)c(OC)c3)c(=O)c3ccccc32)cc1`, for which the inhibition is -5.1%.

Regarding `Cc1nnc(SCC(=O)Nc2ccc(N(C)C)cc2)[nH]c1=O`, the inhibition amounted to 3.54%. The same measure for `CCOC(=O)N1CCc2c(sc3c2C(=O)NC(c2ccc(C(=O)OC)cc2)N3)C1` (configuration not stated): 3.25%; for `Cc1ccccc1NC(=O)CCn1nc(-c2ccccc2)c2ccccc2c1=O`: -10.1%. As to `CCOc1ccc(Sc2cc(C(=O)NCc3ccccc3Cl)c3ccccc3n2)cc1`, the inhibition is -0.835%. As for `Cc1ccc(CNS(=O)(=O)c2ccc3c(c2)CC(C)N3C(=O)C2CCC2)cc1` (configuration not stated), the figure is 7.55%; as for `COc1ccc(OC)c(C(=O)CN2C(=O)N(c3ccc(C)cc3)S(=O)(=O)c3ccccc32)c1`, 5.97%.

For the molecule `COC(=O)c1c(-c2cccs2)csc1NC(=O)c1ccc(C)cc1`, the inhibition was found to be 15%. The same measure for `O=C(Cn1c(-c2cccs2)cc2ccccc21)N1CCN(c2ccc(F)cc2)CC1`: -11.5%; for `Cc1cc(NC(=O)c2cc(-c3ccc(Cl)c(Cl)c3)on2)n(-c2ccccc2)n1`: -24.6%; for `CCOc1ccc(CNC(=O)C2CCN(C(=O)N3CC(CC)Oc4ccc(C)cc43)CC2)cc1OC` (configuration not stated): -13.5%. `COc1ccccc1NC(=O)Cn1c(=O)n(CC2CCC(C(=O)NCCc3ccccc3)CC2)c(=O)c2ccccc21` (configuration not stated): the inhibition is 10.6%. As for `Cc1ccccc1N1CC(c2nc3ccccc3n2Cc2ccc(Br)cc2)CC1=O` (configuration not stated), the figure is 22.6%. As for `Cc1cc(Br)ccc1NC(=O)c1c(C)oc2ncnc(N3CCCCC3)c12`, the figure is -2.82%; as for `COc1ccc(CNC(=O)C(=O)Nc2cccc(C)c2C)cc1`, -0.282%. As for `COc1ccc2oc(-c3ccc(NC(=O)c4ccc(Cl)cc4Cl)cc3)nc2c1`, the figure is -5.6%; as for `Cc1ccc(-n2ncc3c(N4CCN(c5ccc(F)cc5)CC4)ncnc32)cc1`, -3%; as for `O=c1c(-c2cc(-c3ccccc3)nc3c2COc2ccccc2-3)coc2ccc(Cl)cc12`, -5.3%.

On to `O=C(Nc1cc(Cl)ccc1Cl)c1cc(S(=O)(=O)N2CCc3ccccc3C2)ccc1F`, for which the inhibition was -3.32%.

In the case of `CCc1ccc(NC(=O)C2CCCN(c3nnc(C)c4c(C)n(-c5ccccc5)nc34)C2)cc1` (configuration not stated), the inhibition was -16.8%. The same measure for `Cc1cccc(NC(=O)N2CCN3CCCCC3C2)c1C` (configuration not stated): -2.51%; for `COc1cc(NC(=O)CCS(=O)(=O)c2ccc3c(c2)n(C)c(=O)c(=O)n3C)cc(OC)c1`: 17.1%; for `Cc1cccc(C)c1Nc1c(-c2ccsc2)nc2cccc(C)n12`: -2.56%.

With `COc1ccccc1N1CCN(c2csc3ccccc3c2=O)CC1`, the inhibition was -18.1%.

`COc1cccc(NC(=O)Cn2c(-c3nonc3N)nc3ccccc32)c1`: the inhibition turned out to be 8.02%. As for `COc1ccccc1CNC(=O)CCCCn1c(=O)c2ccccc2n(CC(=O)Nc2cccc(Cl)c2)c1=O`, the figure is -0.956%; as for `CCOc1ccc(/C=C/c2nc(C#N)c(N3CCC(C)CC3)o2)cc1`, -17.2%.

Take `COC(=O)c1cc2oc3ccccc3c2n1Cc1ccccc1Cl`: the inhibition is -3.25%. The same measure for `CCc1ccc(Sc2cc(C(=O)NCCCN3CCC(C)CC3)c3ccccc3n2)cc1`: -14.6%; for `COC(=O)c1c(-c2ccc(Cl)cc2)noc1N1CCN(c2ccc(F)cc2)CC1`: 0.311%. In the case of `Cc1ccc(C(C)C)c(OCc2nc(-c3nonc3N)no2)c1`, the inhibition was active: 33%.

Consider `C/C(=C\c1ccccc1)CN1CCN(c2ccccc2F)CC1`, for which the inhibition is active: 66.9%. The same measure for `Cc1ccc(-c2nc(-c3cc4cccc(OCc5ccccc5F)c4oc3=O)no2)cc1`: -10.7%. The same measure for `O=C(Cn1cc2c(n1)CCCC2)NCCCN1CCN(c2ccccc2F)CC1`: active: 76.2%.

On to `Cc1ccc(NC(=O)Cn2c(=O)n(Cc3ccc(C(=O)NCc4ccc5c(c4)OCO5)cc3)c(=O)c3ccccc32)cc1`, for which the inhibition is -2.14%. The same measure for `CCOc1ccc(CNC(=O)CCS(=O)(=O)c2ccc3c(c2)oc(=O)n3C)cc1`: -27.4%; for `CC(C)c1cc(C(=O)NCc2ccccc2)no1`: -18.1%.

As for `COc1ccc(NC(=O)Cn2nc(C(F)(F)F)c3c2CCCC3)cc1OC`, the inhibition is -4.71%. As for `COc1cccc(-c2nn3c(=O)cc(CN4CCN(C(=O)/C=C/c5ccccc5)CC4)nc3s2)c1`, the figure is 27.1%; as for `Cc1cccc(N2CCN(C(=O)c3ccc4c(Cl)c5c(nc4c3)CCCC5)CC2)c1C`, -12.8%. The same measure for `CCOc1ccccc1NC(=O)C1=C(C)Nc2ncnn2C1c1cccs1` (configuration not stated): 5.8%; for `COc1cc(NC(=O)c2nc3ccccc3n(C)c2=O)cc(OC)c1OC`: 8.89%; for `CC(C)NC(=O)CN1C(=O)c2cccnc2Sc2ccccc21`: 0.927%. `Cc1ccc(CCNC(=O)CCS(=O)(=O)c2cc3c(cc2Cl)NC(=O)CO3)cc1`: the inhibition turned out to be 11.8%. The same measure for `COc1ccc(CNC(=O)C2=CC(c3cccc(OC)c3)=NS(=O)(=O)N2C)cc1`: 17.3%; for `O=C(OCc1cc(=O)n2nc(C3CC3)sc2n1)c1ccccc1Cl`: -5.51%; for `CC(=O)c1cccc(NC(=O)c2cc(C)nc3c2c(C)nn3-c2cccc(Cl)c2C)c1`: -1.51%.

Regarding `CCn1cc(C(=O)NCCc2ccc(C)cc2)c(=O)c2cc(S(=O)(=O)N3CCC(C)CC3)ccc21`, the inhibition was 4.46%. The same measure for `COC(=O)c1ccc(NC(=O)C(=O)NCC(c2cccnc2)N2CCc3ccccc32)cc1` (configuration not stated): 15.5%; for `CCCOc1ccc(C(=O)Nc2ccc3oc(-c4ccc(N(C)C)cc4)nc3c2)cc1`: -4.51%. For `Cc1c(NC(=O)c2sc3ccccc3c2Cl)cccc1-c1nc2ccccc2o1`, the inhibition is -6.99%. On to `Cc1c(Cl)cccc1NC(=O)Cn1nnc(-c2nc(-c3ccccc3)no2)c1N`, for which the inhibition came out at 2.35%.

Turning to `Cc1ccccc1OCC(=O)Nc1ccc2nc(SCC(N)=O)sc2c1`, the inhibition is -7.08%. Turning to `Cc1ccc(C2CC(C(F)(F)F)n3ncc(C(=O)NCc4ccco4)c3N2)cc1` (configuration not stated), the inhibition was active: 37.2%.

Consider `CC1=C(C(=O)Nc2ccccc2)C(c2ccc[nH]2)n2ncnc2N1` (configuration not stated), for which the inhibition stood at 12.3%. As for `CCCCOC(=O)c1ccc(NC(=O)c2csnn2)cc1`, the figure is 1.17%; as for `O=C(COC(=O)c1ccccc1-c1nc2ccccc2s1)NC1CCS(=O)(=O)C1` (configuration not stated), active: 32.3%. The same measure for `COCc1c(C(=O)N2CCN(CCOc3ccccc3)CC2)oc2ccccc12`: active: 77.5%; for `CSc1oc(-c2ccccc2)nc1S(=O)(=O)c1ccc(C)cc1`: active: 34.3%. On to `Cc1cccc(N2CCN(C(=O)CNC(=O)c3ccccc3)CC2)c1C`, for which the inhibition was active: 33.1%. The same measure for `CCOC(=O)c1cccc(NC(=O)c2ccc3nc(CCc4ccccc4)oc3c2)c1`: -4.68%.

For `O=C(NCCCc1nc2ccccc2n1Cc1cccc(Cl)c1)C1CCCCC1`, the inhibition came out at 0.674%. As for `O=C(c1ccc2c(c1)N(Cc1ccc(Cl)cc1)C(=O)c1ccccc1S2=O)N1CCC(Cc2ccccc2)CC1` (configuration not stated), the figure is -9.39%. As for `Cc1csc(=O)n1CCC(=O)OCC(=O)Nc1ccc(S(N)(=O)=O)cc1`, the figure is active: 53.9%. The same measure for `COc1ccccc1N1CCN(Cc2nnc(-c3ccccc3C)o2)CC1`: -4.95%. `O=S(=O)(Nc1ccc(C(F)(F)F)cc1)c1ccc2c(c1)OCCO2`: the inhibition worked out at 18.1%. As for `COc1ccc(OC)c(S(=O)(=O)NCC(c2ccco2)S(=O)(=O)c2ccccc2)c1` (configuration not stated), the inhibition was found to be 2.77%.

The values above are taken from PubChem BioAssay AID485344 (National Center for Advancing Translational Sciences (NCATS), 2010).
